According to patent US10954277B2, “Materials and methods for treating cancer” (Mayo Foundation for Medical Education and Research, priority 2016, dated 2021):

What was measured:
p27KIP1 = assay: Western blot analysis of p27KIP1 in cancer cell lines; type: cell-based, human
Description: (§1) Short exp., short exposure.

pERK1/2 [1] = assay: Western blot analysis of pERK1/2 in cancer cell lines
FOXO1 [2] = assay: Immunofluorescent cytochemistry of FOXO1 cellular localization; type: cell-based, human
Protocol: A) Western blot analysis of IQGAP1 protein expression in prostate cancer cell lines LNCaP, C4-2 and C4-2B. ERK2 was used as loading control. The density of IQGAP1 was determined by normalizing to ERK2 first and then to the normalized value in LNCaP cells.
Briefly, cells were rinsed in PBS, fixed in 4% paraformaldehyde for 15 minutes and washed in PBS three times. Fixed cells were permeabilized with 0.2% Triton X-100 for 20 minutes, washed in PBS and then blocked in PBS supplemented with 5% goat serum and 10% glycerol. Cells were incubated with indicated primary antibody at 4° C. overnight. Cells were washed three times with PBS and incubated with secondary antibody that was conjugated with Alexa Fluor 488 (Thermo Fisher Scientific) for 1 hour at room temperature. After the final wash, cells were counterstained with Vectashield (Vector Laboratories) containing DAPI (4′, 6-diamidino-2-phenylindole). Images were captured using Zeiss laser confocal microscope (LSM780).

pAKT = assay: Western blot analysis of pAKT in cancer cell lines; type: cell-based, human
LNCaP cells = assay: MTS cell viability assay in LNCaP cells; type: cell-based, human; conditions: MK2206 treatment alone, 0.5 μM
PC-3-Luc cells = assay: MTS assay in PC-3-Luc cells; type: cell-based, human; conditions: DTX 10 nM alone
Protocol: Cell growth was measured by absorbance using the MTS assay according to manufacturer's instructions (Promega). Cells were plated in 96-well plates at a density of 1,000 cells per well. At the indicated time points, 20 μl of CellTiter 96R AQueous One Solution reagent (Promega) was added to cells; after incubating for 60 minutes at 37° C., cell growth was measured in a microplate reader at 490 nm.

PC-3-Luc xenografts = assay: PC-3-Luc prostate cancer xenografts in NSG mice, luminescent imaging; type: in vivo; conditions: DTX 5 mg/kg intravenous twice a week, empty vector xenografts
Description: as §1
The animal study was approved by IACUC.

pERK1/2 [3] = assay: Immunofluorescent histochemistry of p-ERK in PC-3 mouse xenografts; conditions: PC-3 xenografts in mice, DTX 5 mg/kg intravenous twice a week
FOXO1 [4] = assay: Western blot analysis of FOXO1 phosphorylation at T24 and S256; type: cell-based, human; conditions: LNCaP and BT474 cells, paclitaxel 10 nM 24 hours
[5] = C4-2B cells, 24 hours, MK2206 0.5 μM or NVP-BEZ235 50 nM
[6] = C4-2 cells, 24 hours, MK2206 0.5 μM or NVP-BEZ235 50 nM
[7] = LNCaP cells, 24 hours, MK2206 0.5 μM or NVP-BEZ235 50 nM
[8] = LNCaP and BT474 cells, paclitaxel 10 nM 24 hours

## C[C@@H]1C[C@@H]([C@H](O)CC2CC(=O)NC(=O)C2)C(=O)[C@@H](C)C1 [cycloheximide]
p27KIP1; LNCaP cells, CHX 20 μg/ml with or without MK2206
  induction of p27KIP1: blockage of induction of p27KIP1
pERK1/2 [1]; LNCaP cells, CHX 20 μg/ml 30 minutes pre-treatment, then MK2206 0.5 μM 24 hours
  reduction in MK2206-induced pERK1/2: approximately 50%
pERK1/2 [1]; LNCaP cells, CHX treatment alone (20 μg/ml)
  pERK1/2: No effect
FOXO1 [2]; LNCaP cells, CHX treatment alone (20 μg/ml, 24 hours)
  FOXO1 nuclear localization: No effect

## Cn1c(=O)n(-c2ccc(C(C)(C)C#N)cc2)c2c3cc(-c4cnc5ccccc5c4)ccc3ncc21 [NVP-BEZ235]
pERK1/2 [1]; [5]
  pERK1/2: almost none
pERK1/2 [1]; [6]
  pERK1/2: very limited
FOXO1 [2]; [7]
  nuclear localization of FOXO1: induced nuclear localization of FOXO1

## NC1(c2ccc(-c3nc4ccn5c(=O)[nH]nc5c4cc3-c3ccccc3)cc2)CCC1 [MK2206]
pERK1/2 [1]; [5]
  pERK1/2: increased pERK1/2
pERK1/2 [1]; [6]
  pERK1/2: increased pERK1/2
pERK1/2 [1]; [7]
  pERK1/2: increased pERK1/2
pAKT; LNCaP, C4-2 and C4-2B cells, MK2206 0.5 μM, 24 hours
  pAKT: inhibition of pAKT
LNCaP cells
  LNCaP cell growth: only transiently decreased LNCaP cell growth
FOXO1 [2]; [7]
  nuclear localization of FOXO1: induced nuclear localization of FOXO1

## CC(=O)O[C@@]12CO[C@@H]1C[C@H](O)[C@@]1(C)C(=O)[C@H](O)C3=C(C)[C@@H](OC(=O)[C@H](O)[C@@H](NC(=O)OC(C)(C)C)c4ccccc4)C[C@@](O)([C@@H](OC(=O)c4ccccc4)[C@H]21)C3(C)C [DTX, docetaxel]
PC-3-Luc cells
  tumor growth in vitro: failed to completely block tumor growth
PC-3-Luc xenografts
  tumor growth in vivo: failed to completely block tumor growth
pERK1/2 [3]
  pERK1/2: increased pERK1/2

## CC(=O)O[C@H]1C(=O)[C@@]2(C)[C@H]([C@H](OC(=O)c3ccccc3)[C@]3(O)C[C@H](OC(=O)[C@H](O)[C@@H](NC(=O)c4ccccc4)c4ccccc4)C(C)=C1C3(C)C)[C@]1(OC(C)=O)CO[C@@H]1C[C@@H]2O [paclitaxel]
p27KIP1; [8]
  p27KIP1: transactivation of p27KIP1
pERK1/2 [1]; [8]
  pERK1/2: increase in pERK1/2
pAKT; [8]
  pAKT: induced inhibition of pAKT
FOXO1 [4]
  phosphorylation of the 14-3-3 binding sites (T24 and S256) of FOXO1: decreased phosphorylation
FOXO1 [2]; [8]
  nuclear localization of FOXO1: nuclear localization of FOXO1

## epidermal growth factor: growth factor used to induce pERK1/2 in C4-2 cells (NSDSECPLSHDGYCLHDGVCMYIEALDKYACNCVVGYIGERCQYRDLKWWELR; Epidermal growth factor; UniProt P01133 971-1023, looked up)
pERK1/2 [1]; C4-2 cells, 10 ng/mL for 10 minutes
  pERK1/2: induced pERK1/2
